The results in this text go back to paper PMC4336329 (PLoS ONE, 2015).

The campaign covered roughly 310,000 compounds. About 2,200 (0.71%) showed an effect of 50% or more. Effects have a minus sign here. The list shows a part of the results.

Sequence of human ether-à-go-go-related gene (hERG) potassium channel (Q12809 whole entry, looked up): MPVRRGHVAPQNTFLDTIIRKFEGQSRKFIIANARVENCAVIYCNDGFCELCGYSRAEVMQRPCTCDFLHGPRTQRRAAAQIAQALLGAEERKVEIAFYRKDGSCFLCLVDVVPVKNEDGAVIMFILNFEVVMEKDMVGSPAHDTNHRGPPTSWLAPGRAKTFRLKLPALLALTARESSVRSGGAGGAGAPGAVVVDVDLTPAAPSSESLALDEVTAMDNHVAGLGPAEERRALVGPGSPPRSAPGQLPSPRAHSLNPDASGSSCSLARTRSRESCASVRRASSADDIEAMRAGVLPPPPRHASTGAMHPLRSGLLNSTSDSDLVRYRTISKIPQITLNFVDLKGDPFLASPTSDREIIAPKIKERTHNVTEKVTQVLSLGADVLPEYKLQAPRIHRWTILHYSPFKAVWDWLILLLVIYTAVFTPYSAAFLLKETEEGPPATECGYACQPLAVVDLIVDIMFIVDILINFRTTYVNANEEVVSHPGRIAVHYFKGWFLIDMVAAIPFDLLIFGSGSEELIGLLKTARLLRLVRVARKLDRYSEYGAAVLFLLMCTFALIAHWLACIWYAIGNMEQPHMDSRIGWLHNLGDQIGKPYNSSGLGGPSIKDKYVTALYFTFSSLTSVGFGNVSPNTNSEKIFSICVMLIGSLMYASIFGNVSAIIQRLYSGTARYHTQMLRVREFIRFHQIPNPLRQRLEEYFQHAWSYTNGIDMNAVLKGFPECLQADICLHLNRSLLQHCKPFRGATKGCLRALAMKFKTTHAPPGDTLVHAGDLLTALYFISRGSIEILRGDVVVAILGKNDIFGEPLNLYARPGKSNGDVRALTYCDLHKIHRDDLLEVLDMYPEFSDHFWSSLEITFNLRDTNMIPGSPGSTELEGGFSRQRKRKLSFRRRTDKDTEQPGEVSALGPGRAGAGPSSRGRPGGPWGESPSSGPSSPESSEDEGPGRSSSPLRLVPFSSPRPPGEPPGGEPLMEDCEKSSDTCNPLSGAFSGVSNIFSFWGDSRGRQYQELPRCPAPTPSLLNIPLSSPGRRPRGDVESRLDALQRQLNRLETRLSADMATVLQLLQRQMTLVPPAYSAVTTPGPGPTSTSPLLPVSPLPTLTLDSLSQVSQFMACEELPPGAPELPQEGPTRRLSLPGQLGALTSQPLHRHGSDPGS

The target in the test is human ether-à-go-go-related gene (hERG) potassium channel (human, UniProt Q12809). Kind of test: primary screen, population patch clamp on CHO cells stably expressing hERG. On the procedure:
Briefly, Chinese hamster ovary (CHO) cells stably expressing the hERG channel were dislodged from tissue culture flasks and dispensed into PPC plates. […] During the recording, background leak currents were estimated by a 100 ms step to -80 mV from an initial holding potential of -70 mV and subtracted from the subsequent current measurement. The campaign was conducted in two phases using slight differences in recording protocol. In the first phase, the initial voltage pulse used a 100 ms step to -30 mV from a holding potential of -70 mV, a 2 s conditioning step to +25 mV, and a 2 s test step to -30 mV. During the second phase of the screen, the potential during the conditioning step was raised to +45 mV. In both phases of the campaign, a secondary voltage pulse was applied using the same parameters as the second phase initial pulse. The initial and secondary pulses were applied in the absence of compound, and upon application of 1 μM and 10 μM test concentrations. Small molecule effects on hERG current density were quantified by […].
As for `CCC(=O)N1CCc2cc(S(=O)(=O)CCC(=O)N3CCN(c4ccc(Cl)cc4)CC3)ccc21`, the “hERG current change (%, negative = inhibition) at 1uM” value was determined as 18.1%.
Under `CC(=O)Nc1ccc(NC(=O)CSc2nnc(-c3ccco3)n2Cc2ccco2)cc1` stands 21.5%; under `COc1ccccc1C1=NOC(COC(=O)c2ccc(Br)cc2)C1` (stereo not drawn), 15.2%.
Then `O=C(CCCCn1c(=O)c2ccccc2n(Cc2ccc(Cl)cc2)c1=O)NCc1ccco1`, with 3.59%; and `Cc1cccc(OCC(=O)NC(Cc2ccccc2)C(=O)O)c1` (stereo not drawn), with 6.26%.
Then `Cc1cccc(SCC(=O)Nc2ccccc2[N+](=O)[O-])c1`, with 3.75%; and `CC1CCCN(C(=S)NCc2ccccc2)C1` (stereo not drawn), with -2.9%; and `CN(C)c1ccc(/C=N/NC(=O)c2sccc2-n2cccc2)cc1`, with 4.65%.
`O=C(Cn1cnc2c(nnn2Cc2ccc(Cl)cc2)c1=O)NC1CCCC1`: the “hERG current change (%, negative = inhibition) at 1uM” value is given as 10.9%.
Under `COc1cc2nc(Nc3ccc(F)cc3)nc(N)c2cc1OC.Cl` stands 11.8%; under `COc1cc(C(=O)Nc2ccc(OCC(=O)N3CCOCC3)cc2C)cc(OC)c1OC`, 9.76%.
For the compound `Cc1c2ccccc2cc[n+]1CCCS(=O)(=O)[O-]`, the “hERG current change (%, negative = inhibition) at 1uM” value was determined as 18.5%.
Then `O=C(NC(=S)NNS(=O)(=O)c1ccccc1)c1ccc([N+](=O)[O-])cc1`, with 5.2%; and `C/C(=N\NC(=O)CNC(=O)c1ccccc1Br)c1ccco1`, with 5.77%; and `CC(=O)Nc1ccc(S(=O)(=O)N[C@@H](C)C(=O)OCc2cc([N+](=O)[O-])cc3c2OCOC3)cc1`, with 6.61%.
Under `Cc1ccc2oc(=O)c(/C=C(\O)c3ccco3)nc2c1` stands 13.2%; under `CCOC(=O)NCC(C#CCN(CC)CC)N(CC)CC` (stereo not drawn), 7.24%.
Under `Cl.O=C(CCN1CCOCC1)Nc1ccc(Cl)cc1` stands 8.71%.
For the compound `COc1cccc(C(=O)/C=C/c2ccc(N3CCCCC3)c([N+](=O)[O-])c2)c1`, the “hERG current change (%, negative = inhibition) at 1uM” value was determined as 7.48%.
Take `COc1ccc(Nc2ccnc3ccccc23)cc1.Cl`: the “hERG current change (%, negative = inhibition) at 1uM” value is given as -6.28%.
Under `Cc1ccc(OCC(=O)NN2C(=O)c3ccccc3C2=O)c(C)c1` stands 9.92%.
For the compound `COc1ccc(OCC(=O)Nc2cc(NC(=O)COc3ccc(OC)cc3)cc(C(=O)O)c2)cc1`, the “hERG current change (%, negative = inhibition) at 1uM” value worked out at 10.2%.
Then `CC(NC(=O)[C@H](C)NC(=O)C1CC(=O)N(c2ccc3c(c2)OCO3)C1)c1ccccc1` (stereo partly drawn), with 5.86%.
Then `CCOc1ccccc1N(CC(=O)Nc1ccc(S(=O)(=O)N2CCOCC2)cc1)S(=O)(=O)c1ccccc1`, with 9.41%; and `CN1CCN(C(=O)c2cccn(Cc3ccc(C(F)(F)F)cc3)c2=O)CC1`, with 19.1%; and `COCCN1CCN(c2c(C)c(C)nc3cc(-c4cccc(OC)c4)nn23)CC1`, with 10.6%.
Then `C=CCN(C(=O)CNC(=O)c1ccco1)C(C(=O)NC1CCCCC1)c1cccnc1` (stereo not drawn), with 3.63%.
Regarding `COc1ccc(S(=O)(=O)N2CCc3ccccc32)cc1C(=O)OCC(=O)c1c(N)n(C)c(=O)n(C)c1=O`, the “hERG current change (%, negative = inhibition) at 1uM” value turned out to be 8.21%.
Take `Cc1ccc(N2CCN(CC(O)COc3cccc4ccccc34)CC2)cc1` (stereo not drawn): the “hERG current change (%, negative = inhibition) at 1uM” value is -0.483%.
In the case of `COc1ccc(NC(=O)C2CC(c3cccc(Br)c3)=NO2)cc1OC` (stereo not drawn), the “hERG current change (%, negative = inhibition) at 1uM” value was found to be 22%.
Under `C=CCNC(=O)[C@H]1N2C(=O)c3ccccc3C2SC1(C)C` (stereo partly drawn) stands 16.1%.
In the case of `COc1ccc(NC(=O)c2cccc(NC(=O)C3C4CC5OC(=O)C3C5C4)c2)c(OC)c1` (stereo not drawn), the “hERG current change (%, negative = inhibition) at 1uM” value is given as 10.6%.
Under `O=C(Cc1ccc(Cl)cc1)Nc1ccc(NC(=O)c2ccccc2)cc1` stands 28.2%; under `COc1ccc(C(=O)C2CCCN(Cc3cnc(N4CCOCC4)s3)C2)c(OC)c1` (stereo not drawn), -4.05%.
Then `CC(C)NCC(O)COCCOc1ccc(Cl)cc1.Cl` (stereo not drawn), with 8.08%; and `COc1ccc2cc3cc(C(=O)NCCCN4CCc5ccccc5C4)sc3nc2c1`, with 13.3%; and `CS(=O)(=O)NCCOc1ccc(S(=O)(=O)N2CCCc3ccccc32)cc1`, with 2.34%.
For the compound `Cc1ccc(NC(=O)CC(O)(C(F)(F)F)C(F)(F)F)cc1`, the “hERG current change (%, negative = inhibition) at 1uM” value stood at 19.8%.
On to `NC(=O)[C@@H]1CC2(CC(c3cccc(NC(=O)[C@H]4CCC(=O)N4)c3)=NO2)CN1C(=O)COc1ccc(Cl)cc1` (stereo partly drawn), for which the “hERG current change (%, negative = inhibition) at 1uM” value came to 17.4%.
Then `O=C(Cn1nnc(-c2ccccc2F)n1)N1CCCCC1`, with 24.2%.
Under `Cc1ccc(C(=O)CSc2nc(N)cc(=O)[nH]2)cc1C` stands 9.67%; under `O=C(CSc1ncnc2nc[nH]c12)c1ccc(Cl)cc1`, 13%.
Consider `COc1ccc(OCC(=O)Nc2ccccc2N2CCN(C)CC2)cc1`, for which the “hERG current change (%, negative = inhibition) at 1uM” value is on record as -3.86%.
`CCCNC(=O)Cn1cnc2sc(C(=O)N3CCN(Cc4ccc5c(c4)OCO5)CC3)c(C)c2c1=O`: the “hERG current change (%, negative = inhibition) at 1uM” value stood at 13.7%.
Then `COc1ccc(OCC(=O)NNC(=O)c2cccc(S(=O)(=O)N(C)C)c2)cc1`, with 12.5%; and `CCCC(=O)Nc1nc(C)c(-c2csc(Nc3ccccc3C)n2)s1`, with 7.58%; and `CCCn1c(SCC(=O)c2ccc3c(c2)OCCO3)nnc1C(C)C`, with -8.41%.
Then `CN(Cc1ccccc1)S(=O)(=O)c1ccc(NC(=S)NC(=O)C2CCCC2)cc1`, with 21.1%; and `NC(=O)c1cccc(-c2cc(Nc3ccc(OC(F)(F)F)cc3)ncn2)c1`, with 8.52%.
Then `COc1ccc(C(C)=O)cc1COc1cccnc1[N+](=O)[O-]`, with 8.63%; and `CC(=O)Nc1ccc(S(=O)(=O)N(CCc2ccccc2)CC(=O)N/N=C/c2ccc(C(=O)O)cc2)cc1`, with 11.8%.
For the compound `COc1ccc(/C=N/Nc2nonc2N)cc1OC`, the “hERG current change (%, negative = inhibition) at 1uM” value came out at 6.54%.
Under `S=c1nc(-c2ccccc2Cl)n(Cc2cccnc2)c2c1CCCC2` stands 12%.
Then `Fc1ccc(N2CCN(c3cnc4ccccc4n3)CC2)cc1`, with 7.89%; and `COc1ccc(CCNC(=O)C2CCC(=O)N2Cc2ccccc2Cl)cc1OC` (stereo not drawn), with 12%.
Then `O=C(O)c1cnn2c(-c3ccc(F)cc3)ccnc12`, with 14.1%; and `CCOc1cc(C=O)ccc1OCC(=O)NC(C)(C)C`, with 6.41%.
For `Cc1cccc(N2CCN(C(=O)c3cccc(N4C(=O)C5CC=CC(C)C5C4=O)c3)CC2)c1C` (stereo not drawn), the “hERG current change (%, negative = inhibition) at 1uM” value came out at 2.22%.
On to `CCC(CC)NC(=O)c1ccc2c(c1)OCCO2`, for which the “hERG current change (%, negative = inhibition) at 1uM” value turned out to be 9.66%.
Under `COc1ccc(C(C)C)cc1S(=O)(=O)NC1CCCC1` stands 12.1%; under `NCCCCCc1cn([C@@H](CO)C(=O)NCCCCCCCCCCC(=O)N2CCNCC2)nn1`, 2.47%.
Under `C=CCNc1nnc(Cc2ccc(F)cc2)c(=O)[nH]1` stands 26.1%; under `Cc1noc(C)c1S(=O)(=O)NCCN1CCN(c2ccccc2)CC1`, 12.4%.
For the compound `Cc1ccc(C)c(Nc2nc(-c3cccnc3)cs2)c1`, the “hERG current change (%, negative = inhibition) at 1uM” value was determined as 7.69%.
Under `O=C(CCCN1C(=O)S/C(=C/c2ccccc2)C1=S)Nc1ccc(C(=O)O)cc1` stands 10.2%; under `CN(CC(=O)NCCc1ccc(S(N)(=O)=O)cc1)S(=O)(=O)c1ccc(Br)s1`, 8.96%; under `CCC(CC)C(=O)NCCc1cc2c(C)ccc(C)c2[nH]c1=O`, 9.97%.
Then `O=C(c1cccc(S(=O)(=O)N2CCOCC2)c1)N1CCC(Cc2ccccc2)CC1`, with 0.775%; and `O=C1NC(c2ccccc2)(C(F)(F)F)SC2=CCCCCN12` (stereo not drawn), with 18.9%.
Then `CCN(CC)C(=O)c1[nH]cnc1C(=O)N[C@@H](C)C(=O)OCc1ccccc1`, with 5.76%.
Consider `CC(C(=O)NC1CCCc2ccccc21)N1C(=O)C2CCCCC2C1=O` (stereo not drawn), for which the “hERG current change (%, negative = inhibition) at 1uM” value turned out to be 15.6%.
Under `Cc1ccc(S(=O)(=O)N2CCCC2C(=O)Nc2nc3ccccc3s2)cc1` (stereo not drawn) stands -5.12%; under `C=CCN1C(=O)[C@@H]2Cc3c([nH]c4ccccc34)C(c3cc(OC)c(OC)c(OC)c3)N2C1=S` (stereo partly drawn), 14%; under `Cl.O=C(OCCN1CCCCC1)c1ccccc1Br`, 5.12%.
Then `O=C1NC(=O)C(CCc2ccncc2)(CCc2ccncc2)C(=O)N1C1CCCCC1`, with -69.7%; and `CC(=O)N1N=C(c2ccc3ccccc3c2)OC1(C)C`, with 8.84%.
Under `COc1cccc(C(=O)CSc2nnnn2C2CCCCC2)c1` stands 18.1%.
In the case of `O=C(N/N=C/c1ccc([N+](=O)[O-])o1)c1cn(-c2ccccc2)nc1-c1ccc(Cl)cc1`, the “hERG current change (%, negative = inhibition) at 1uM” value turned out to be 11.6%.
For `COCCn1c(C)nnc1SCC(=O)NNC(=O)c1ccc(Cl)cc1`, the “hERG current change (%, negative = inhibition) at 1uM” value turned out to be 14.9%.
In the case of `COc1cc(C)nc(N(C)S(=O)(=O)c2ccccc2Cl)n1`, the “hERG current change (%, negative = inhibition) at 1uM” value is on record as 7.72%.
`CCOC(=O)C(O)(c1ccc(N(CC)C(=O)COc2ccccc2)cc1)C(F)(F)F` (stereo not drawn): the “hERG current change (%, negative = inhibition) at 1uM” value turned out to be 5.79%.
Then `Cc1cccc(NC(=S)N2CCN(C(=O)c3ccco3)CC2)c1C`, with 14.8%.
Then `CCN(CC)S(=O)(=O)c1ccc2oc(C(=O)NC(C)C)c(C)c2c1`, with 5.03%; and `Cc1ccc(NC2=NCC(=O)N2Cc2ccccc2)c(C)c1`, with 9.59%; and `COc1ccc(NC(=O)c2cccc(-c3ccc(O)cc3)c2)cn1`, with 14.7%.
Under `CC(C)CC1NC(=O)N(CC(=O)Nc2ccc3c(c2)CCC3)C1=O` (stereo not drawn) stands 2.78%.
`COC(=O)c1cc(S(=O)(=O)NCC2CCN(Cc3ccc(C)cc3)CC2)c[nH]1`: the “hERG current change (%, negative = inhibition) at 1uM” value is -63%.
